Results as given in article PMC4336329 (PLoS ONE, 2015).
The campaign covered roughly 310,000 compounds. About 2,200 (0.71%) showed an effect of 50% or more. The effect is printed as a negative number. Some of the results follow. Where a SMILES comes first, the peptide text is derived from it. The star is where a group is joined. Boc = CC(C)(C)OC(=O)*

target: human ether-à-go-go-related gene (hERG) potassium channel (human, UniProt Q12809); assay: primary screen, population patch clamp on CHO cells stably expressing hERG
Sequence (Q12809 whole entry, looked up): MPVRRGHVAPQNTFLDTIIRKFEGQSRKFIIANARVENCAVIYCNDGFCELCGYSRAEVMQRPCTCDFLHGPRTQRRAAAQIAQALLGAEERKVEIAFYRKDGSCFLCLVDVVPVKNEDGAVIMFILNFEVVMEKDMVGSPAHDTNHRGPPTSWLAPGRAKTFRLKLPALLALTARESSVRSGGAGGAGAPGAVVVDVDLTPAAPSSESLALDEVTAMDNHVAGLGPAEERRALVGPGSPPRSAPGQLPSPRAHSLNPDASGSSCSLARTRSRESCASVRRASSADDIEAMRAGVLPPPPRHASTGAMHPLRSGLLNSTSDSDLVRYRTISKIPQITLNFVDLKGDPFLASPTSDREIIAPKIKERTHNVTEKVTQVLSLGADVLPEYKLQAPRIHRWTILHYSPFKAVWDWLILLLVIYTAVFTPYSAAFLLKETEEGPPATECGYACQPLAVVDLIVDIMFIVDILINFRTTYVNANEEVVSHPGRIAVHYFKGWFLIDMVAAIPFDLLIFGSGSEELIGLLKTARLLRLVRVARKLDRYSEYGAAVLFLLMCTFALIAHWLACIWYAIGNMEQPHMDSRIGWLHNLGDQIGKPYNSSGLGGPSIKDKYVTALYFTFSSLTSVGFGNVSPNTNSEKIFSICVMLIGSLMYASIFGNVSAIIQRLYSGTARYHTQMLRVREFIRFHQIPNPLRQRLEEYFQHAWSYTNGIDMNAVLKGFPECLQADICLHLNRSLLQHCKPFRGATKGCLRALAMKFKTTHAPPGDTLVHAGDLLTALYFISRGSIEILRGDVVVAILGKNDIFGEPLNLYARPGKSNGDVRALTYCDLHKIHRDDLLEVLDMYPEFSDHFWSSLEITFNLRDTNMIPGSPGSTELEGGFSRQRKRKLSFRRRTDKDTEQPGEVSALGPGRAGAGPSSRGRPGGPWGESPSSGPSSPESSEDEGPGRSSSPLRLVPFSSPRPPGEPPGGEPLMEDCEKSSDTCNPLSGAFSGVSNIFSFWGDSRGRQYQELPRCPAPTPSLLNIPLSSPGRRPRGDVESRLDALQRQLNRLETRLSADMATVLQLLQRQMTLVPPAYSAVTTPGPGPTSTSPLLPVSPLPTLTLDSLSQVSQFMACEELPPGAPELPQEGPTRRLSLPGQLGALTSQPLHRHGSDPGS

**Q.** How did the “hERG current change (%, negative = inhibition) at 1uM” value turn out when `Cc1ccc2cc(C)c3nnc(SCc4ccc(C(=O)O)cc4)n3c2c1C` was run?
**A.** 9.63%

**Q.** How did the “hERG current change (%, negative = inhibition) at 1uM” value turn out when `Cc1ccc(S(=O)(=O)Nc2ccccc2F)cc1C(=O)NCCCN1CCCC1=O` was run?
**A.** -8.22%

**Q.** Which “hERG current change (%, negative = inhibition) at 1uM” value does the source give for `COC(=O)C1=C(C)N(CC2CC2)C(=NCc2cccc(Cl)c2)N[C@H]1c1ccccc1` here?
**A.** -6.12%

**Q.** `O=[N+]([O-])c1ccc(CNCc2cc(Cl)ccc2O)cc1` was tested. Which “hERG current change (%, negative = inhibition) at 1uM” value did it give?
**A.** -0.51%

**Q.** With `Cc1cccc(OCC(=O)Nc2cc(C)on2)c1` as the molecule, how does the “hERG current change (%, negative = inhibition) at 1uM” value read?
**A.** -1.09%

**Q.** How did the “hERG current change (%, negative = inhibition) at 1uM” value turn out when `Cc1ccccc1-c1nnc(SCc2ccc(F)cc2)o1` was run?
**A.** 9.31%

**Q.** How did the “hERG current change (%, negative = inhibition) at 1uM” value turn out when `COc1ccc(C(=O)OCC(=O)NCC2CCCO2)cc1[N+](=O)[O-]` (centres unmarked) was run?
**A.** 8.12%

**Q.** With `C=CCNC(=S)N/N=C/c1ccc(C)cc1C` as the molecule, how does the “hERG current change (%, negative = inhibition) at 1uM” value read?
**A.** 12.3%

**Q.** For `COc1cc(SC)ccc1C(=O)NCc1ccc(C)cc1`, which “hERG current change (%, negative = inhibition) at 1uM” value is on record?
**A.** 0.52%

**Q.** For `CC(NC(=O)C(NC(=O)C(Cc1c[nH]c2ccccc12)NC(=O)OC(C)(C)C)C(C)C)C(N)=O` (stereo not drawn) (Boc-Trp-Val-Ala-NH2; configuration not given here), which “hERG current change (%, negative = inhibition) at 1uM” value is on record?
**A.** 15.8%

**Q.** Which “hERG current change (%, negative = inhibition) at 1uM” value does the source give for `CC(=O)c1cccc(NS(=O)(=O)c2ccc(-c3cc(C)no3)s2)c1` here?
**A.** 7.31%

**Q.** `O=C(c1ccccc1)c1ccc(NCCCn2ccnc2)c([N+](=O)[O-])c1` was tested. Which “hERG current change (%, negative = inhibition) at 1uM” value did it give?
**A.** -65.4%

**Q.** With `CCOC(=O)[C@H]1[C@H]2COc3ccc(C)cc3[C@@H]2N2C(=O)[C@@H](CO)NC(=O)[C@@]12C` as the molecule, how does the “hERG current change (%, negative = inhibition) at 1uM” value read?
**A.** 9.97%

**Q.** With `c1ccc(CN2CCN(c3ncccn3)CC2)cc1` as the molecule, how does the “hERG current change (%, negative = inhibition) at 1uM” value read?
**A.** 12.2%

**Q.** For `O=C(CSc1nc(O)cc(=O)n1-c1ccccc1)Nc1ccc2c3c(cccc13)CC2`, which “hERG current change (%, negative = inhibition) at 1uM” value is on record?
**A.** 4.42%

**Q.** `COc1cc2ccccc2cc1C(=O)Nc1nnc(-c2ccncc2)o1` was tested. Which “hERG current change (%, negative = inhibition) at 1uM” value did it give?
**A.** -19.4%

**Q.** For `CN(C)C(=O)Oc1ccc2oc(=O)cc(-c3cc4ccccc4o3)c2c1`, which “hERG current change (%, negative = inhibition) at 1uM” value is on record?
**A.** 17.1%

**Q.** For `O=C1C(=O)N(CCN2CCOCC2)C(c2cccnc2)/C1=C(/O)c1ccccc1` (centres unmarked), which “hERG current change (%, negative = inhibition) at 1uM” value is on record?
**A.** 13.3%

**Q.** For `Cc1[nH]nc(SCC(=O)N(C)c2ccccc2)c1[N+](=O)[O-]`, which “hERG current change (%, negative = inhibition) at 1uM” value is on record?
**A.** 5.91%

**Q.** `COc1cc(/C=N\NC(=O)C2C(=O)NCC2c2ccccc2)cc(OC)c1O` (centres unmarked) was tested. Which “hERG current change (%, negative = inhibition) at 1uM” value did it give?
**A.** 10.1%

**Q.** For `C/C(=N\NC(=O)c1nnn(-c2nonc2N)c1CSc1ccccc1)c1cccnc1`, which “hERG current change (%, negative = inhibition) at 1uM” value is on record?
**A.** 7.94%

**Q.** How did the “hERG current change (%, negative = inhibition) at 1uM” value turn out when `O=C(COC(=O)CCCOc1ccccc1)NNC(=O)c1ccc([N+](=O)[O-])cc1` was run?
**A.** 6.34%

**Q.** Which “hERG current change (%, negative = inhibition) at 1uM” value does the source give for `Cc1cc(NS(=O)(=O)c2ccc(NC(=S)Nc3ccc(Cl)cc3C)cc2)no1` here?
**A.** 13.4%
